Each structure is given as a SMILES string. In all, about 310,000 compounds went through this assay and about 14,000 (4.5%) showed an effect of 50% or more. Effects have a minus sign here. This is one part of the list.

We go through 88 compounds from paper PMC4336329 (PLoS ONE, 2015).
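Note: peak tail current of the secondary pulse compared with the same well before compound.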

Sequence of human ether-à-go-go-related gene (hERG) potassium channel (Q12809 whole entry, looked up): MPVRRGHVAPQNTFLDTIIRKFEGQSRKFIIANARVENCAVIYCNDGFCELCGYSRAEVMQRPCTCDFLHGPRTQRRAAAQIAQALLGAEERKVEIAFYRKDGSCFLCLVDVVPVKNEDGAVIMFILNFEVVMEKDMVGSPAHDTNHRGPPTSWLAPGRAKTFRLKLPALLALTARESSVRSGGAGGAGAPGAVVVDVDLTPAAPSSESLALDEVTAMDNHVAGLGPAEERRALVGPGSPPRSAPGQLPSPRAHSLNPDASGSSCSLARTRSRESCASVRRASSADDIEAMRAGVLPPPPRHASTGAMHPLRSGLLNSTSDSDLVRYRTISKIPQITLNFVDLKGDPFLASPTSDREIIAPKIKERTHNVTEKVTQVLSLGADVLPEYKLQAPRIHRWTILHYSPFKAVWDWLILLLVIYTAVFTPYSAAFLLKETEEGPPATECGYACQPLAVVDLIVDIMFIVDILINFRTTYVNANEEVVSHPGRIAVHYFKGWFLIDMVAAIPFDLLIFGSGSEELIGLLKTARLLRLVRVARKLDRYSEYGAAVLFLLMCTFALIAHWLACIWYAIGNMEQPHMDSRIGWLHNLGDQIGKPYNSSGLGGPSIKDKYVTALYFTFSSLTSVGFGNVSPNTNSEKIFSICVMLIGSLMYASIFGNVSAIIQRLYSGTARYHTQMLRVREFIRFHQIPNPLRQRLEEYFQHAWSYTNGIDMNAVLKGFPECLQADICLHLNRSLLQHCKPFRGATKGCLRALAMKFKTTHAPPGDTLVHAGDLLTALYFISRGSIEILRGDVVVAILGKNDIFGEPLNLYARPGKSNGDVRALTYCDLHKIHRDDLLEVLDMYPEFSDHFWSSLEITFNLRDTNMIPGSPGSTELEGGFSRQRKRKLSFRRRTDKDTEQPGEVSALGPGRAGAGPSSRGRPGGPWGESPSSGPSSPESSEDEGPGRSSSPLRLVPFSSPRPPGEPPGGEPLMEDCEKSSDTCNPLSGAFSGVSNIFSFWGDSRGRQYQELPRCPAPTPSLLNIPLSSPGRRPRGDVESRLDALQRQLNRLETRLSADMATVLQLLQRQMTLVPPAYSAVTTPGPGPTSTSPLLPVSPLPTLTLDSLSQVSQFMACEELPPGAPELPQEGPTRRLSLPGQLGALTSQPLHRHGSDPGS

This experiment has as its target human ether-à-go-go-related gene (hERG) potassium channel (human, UniProt Q12809). Nature of the experiment: primary screen, population patch clamp on CHO cells stably expressing hERG.
In the case of `COc1ccc(C=O)cc1Oc1nc(Cl)ncc1F`, the “hERG current change (%, negative = inhibition) at 10uM” value turned out to be 22.6%.

Consider `Cc1ccc(-c2cc(C(=O)O)c3ccccc3n2)c(C)c1`, for which the “hERG current change (%, negative = inhibition) at 10uM” value amounted to 3.75%. The figure for `COc1ccc(NC(=O)C(c2ccccc2)N(C)C(=O)c2ccc(=O)[nH]c2)cc1` (stereo not shown) is 10.5%; for `CC1=C(C(=O)Nc2ccccc2)C(c2ccco2)NC(=S)N1` (stereo not shown) it is 22.7%.

With `COc1ccc(-c2nc(C#N)c(N3CCC(C)CC3)o2)cc1`, the “hERG current change (%, negative = inhibition) at 10uM” value is reported as -34.2%. The same measure for `CCCCCCN(C(=O)CCl)c1ccccc1`: -3.01%. The figure for `FC(F)(F)c1cccc(CN2CCN(c3ncccn3)CC2)c1` is 3.78%; for `Cc1ccc2nc(NCC(=O)NN)nc(-c3ccccc3)c2c1` it is 3.86%; for `CN(C1CCCCC1)S(=O)(=O)c1ccc2[nH]c(=O)oc2c1` it is -7.46%. Take `O=C1C(c2ccccc2)C(c2ccccc2)NC(c2ccccc2)C1c1ccccc1` (stereo not shown): the “hERG current change (%, negative = inhibition) at 10uM” value came to 16.6%. The figure for `O=C(CSc1nnc(CCc2nc3ccccc3[nH]2)n1-c1ccccc1)NCc1ccccc1` is 0.84%; for `CCN1CCCC1CNC(=O)C(=O)Nc1ccccc1OC` (stereo not shown) it is -15%. The same measure for `CC(=O)C1=C(O)C(=O)N(c2ccccn2)C1c1ccccc1[N+](=O)[O-]` (stereo not shown): 14.2%; for `O=C(Nc1ccc(OC(F)F)cc1)c1cc[n+]([O-])cc1`: -0.758%.

`CC(=O)N1CCN(c2ccc(NC(=O)c3ccc(C)c([N+](=O)[O-])c3)cc2)CC1`: the “hERG current change (%, negative = inhibition) at 10uM” value is -8.57%. Take `COc1ccc(OCC(O)CN2CCOCC2)cc1` (stereo not shown): the “hERG current change (%, negative = inhibition) at 10uM” value is 15.3%. The same measure for `Cc1cc(Cl)ccc1NNC(=O)c1c(C)noc1C`: 19.2%. Turning to `Cc1ccc(NC(=O)c2sccc2C)cc1S(=O)(=O)N(C)C`, the “hERG current change (%, negative = inhibition) at 10uM” value is -20.6%. The same measure for `Cc1cccc(NC(=O)CNC(=O)C23CC4CC(CC(Cl)(C4)C2)C3)n1`: -6.02%; for `Cc1cccc(Cl)c1NNC(=O)Nc1c([N+](=O)[O-])c(C)nn1C`: -3.29%. The same measure for `Cc1csc(Nc2ccc(Cl)cc2)[n+]1-c1ccc(Cl)cc1.[Br-]`: 14.9%; for `CC(=O)c1cccc(OCC(=O)N(C)CC(=O)Nc2ccc(F)cc2)c1`: -8.68%; for `CC(=O)Nc1ccc(S(=O)(=O)NCc2nc(-c3ccccc3)no2)cc1`: 14.3%.

For the compound `Cc1cc(C)cc(SCc2noc(C(=O)NC(C)C)c2C(=O)NC(C)C)c1`, the “hERG current change (%, negative = inhibition) at 10uM” value is on record as 10.2%.

On to `CC(C)c1ccc(N2C(=O)/C(=C/N(C)C)SC2=S)cc1`, for which the “hERG current change (%, negative = inhibition) at 10uM” value was -14.1%. As to `Cc1c(OCC(=O)NCCCN2CCOCC2)ccc2c1oc(=O)c1ccccc12`, the “hERG current change (%, negative = inhibition) at 10uM” value is -46.6%.

For the compound `Cc1cccc(/N=C/c2c(O)n(Cc3ccc4c(c3)OCO4)c(=O)c3ccccc23)n1`, the “hERG current change (%, negative = inhibition) at 10uM” value was determined as 3.15%. The figure for `CC(NCC(c1ccco1)N1CCCCC1)C(=O)NC1CCCC1.Cl` (stereo not shown) is 3.21%; for `CCOC(=O)CSc1nc2sc(C(=O)O)c(C)c2c(=O)[nH]1` it is 10.7%; for `O=C(O)C/C(=C\c1cc(Br)cs1)c1nc2ccccc2o1` it is 8.59%.

In the case of `COC(=O)c1ccccc1N=Nc1c(N)n[nH]c1N`, the “hERG current change (%, negative = inhibition) at 10uM” value is 14.8%. The same measure for `CCN(CCNC(=O)C1CCC(=O)N1Cc1ccc(C)cc1)c1ccccc1` (stereo not shown): -23.4%. The figure for `O=C1CN(c2nc(-c3cccnc3)nc3sc4c(c23)CCCC4)CCN1` is -41.5%; for `CCN(C1CCCCC1)S(=O)(=O)c1ccc(S(=O)(=O)NCc2ccncc2)cc1` it is -4.63%; for `CCOC(=O)c1sc(NC(=O)/C=C/c2cnn(C)c2C)c(C(=O)OC(C)C)c1C` it is 1.98%. Turning to `O=c1[nH]c2ccccc2cc1CN(Cc1cccnc1)S(=O)(=O)c1ccc(Cl)cc1`, the “hERG current change (%, negative = inhibition) at 10uM” value was -56.2%. Turning to `O=C(NC(=O)c1c(Cl)cccc1Cl)Nc1ccc(Oc2cccnc2)nc1`, the “hERG current change (%, negative = inhibition) at 10uM” value is on record as 6.69%.

For the compound `NC(=O)CSc1ccc(-c2ccc(F)cc2)nn1`, the “hERG current change (%, negative = inhibition) at 10uM” value worked out at 16.6%. In the case of `Fc1cccc(NC(=S)Nc2cccnc2)c1`, the “hERG current change (%, negative = inhibition) at 10uM” value was found to be 41.5%. The same measure for `CC(=O)c1ccccc1NC(=O)COC(=O)CSCC(=O)Nc1cc(C)on1`: -1.32%; for `COCCn1c(C)nnc1SCC(=O)Nc1ccccc1[N+](=O)[O-]`: 24.2%. The same measure for `COc1ccc(NC(=S)N2CCCC2)c(OC)c1`: 11.3%.

As to `N#Cc1ccc(/C=C2\CCn3c2nc2cc(C(=O)O)ccc2c3=O)cc1`, the “hERG current change (%, negative = inhibition) at 10uM” value was found to be 4.16%. The figure for `COc1cccc(CNc2cccc3cccnc23)c1O` is -12.4%; for `O=S(=O)(Nc1ccc(-c2cn3ccsc3n2)cc1)c1ccc2c(c1)OCCO2` it is 1.05%. The figure for `COc1cccc(NC(=O)C2CCCN(S(=O)(=O)c3ccc(-n4cnnn4)cc3)C2)c1` (stereo not shown) is -9.56%; for `CC(=O)OC1c2c(ccc3ccc(=O)oc23)OC(C)(C)C1OC(=O)CC(C)C` (stereo not shown) it is -30.4%; for `CC1(C)Cc2c(C#N)c(NCCN3CCOCC3)nc(-c3ccccc3)c2CO1` it is -17.1%. The figure for `O=c1c2[nH]c3ccc(F)cc3c2ncn1CCCn1ccnc1` is -61.1%. As to `COC(=O)C1C2C=CC3(CN(C4CCCC4)C(=O)C13)O2` (stereo not shown), the “hERG current change (%, negative = inhibition) at 10uM” value is reported as 22.3%. The same measure for `C=CCCCCCCCCC(=O)NNC1CC(=O)N(c2ccccc2)C1=O` (stereo not shown): 26.2%; for `CC(Oc1ccc2c3c(c(=O)oc2c1)CCC3)C(=O)N[C@@H](Cc1ccccc1)C(=O)O` (stereo partly shown): 7.43%; for `CC(Oc1ccc(C(C)(C)C)cc1)C(=O)NCC(c1ccco1)N1CCCC1` (stereo not shown): -40.8%. The same measure for `Cc1ccc(C(CNC(=O)c2ccc(Br)o2)N2CCN(C)CC2)cc1` (stereo not shown): -60.4%. Consider `Cc1n[nH]c(=O)c2c(NC(=O)COC(=O)Cc3c(F)cccc3Cl)oc(C)c12`, for which the “hERG current change (%, negative = inhibition) at 10uM” value is -2.5%. The same measure for `Cc1ccc(C(=O)C(OC(=O)CN2C(=O)c3ccccc3C2=O)c2ccccc2)cc1` (stereo not shown): -20.7%; for `S=C(NC1CCCC1)N1CCOCC1`: -1.58%; for `Cl.O=C(CN1CCCCC1)Nc1ccc(NC(=O)c2ccccc2Cl)cc1Cl`: -8.82%. The same measure for `CC(Sc1ccc(S(=O)(=O)N2CCCC2)cn1)C(N)=O` (stereo not shown): 12%. `COc1ccc(C2C(C(C)=O)=C(O)C(=O)N2c2cccnc2)cc1OC` (stereo not shown): the “hERG current change (%, negative = inhibition) at 10uM” value was 14%. The same measure for `CC(=O)c1cccc(NC(=O)c2cc3nc(C)cc(C)n3n2)c1`: 3.83%; for `CCCOc1ccccc1Nc1nnc(C)c(=O)[nH]1`: 2.99%. As for `Cc1ccc(O)c(C(=O)c2cnc(/N=C(\N)N(C)C)nc2)c1`, the “hERG current change (%, negative = inhibition) at 10uM” value came out at 12.3%. As for `C(=C\c1nc(-c2ccccc2)no1)/c1ccccc1`, the “hERG current change (%, negative = inhibition) at 10uM” value stood at 13.9%.

For `COc1ccc(-c2nn(-c3ccccc3)cc2C(=O)NC(=S)Nc2cc(Cl)ccc2Cl)cc1`, the “hERG current change (%, negative = inhibition) at 10uM” value is listed as 11.1%. The same measure for `CCOC(=O)Cn1c(C)[n+](C)c2cc(Cl)c(Cl)cc21.[I-]`: -9.71%.

For `CN(C(=O)COC(=O)C1CCN(S(=O)(=O)c2ccc3c(c2)OCCO3)CC1)c1ccccc1`, the “hERG current change (%, negative = inhibition) at 10uM” value is listed as -8.77%. The figure for `COc1ccc(OCc2ccc(/C=N\NC(=O)c3sccc3C)o2)cc1` is 6.56%; for `O=C1CC[C@@H](CN(Cc2ccccn2)Cc2nc(Cc3ccccc3)no2)N1` it is -2.64%.

In the case of `Cc1cc(N2C(=O)C(O)=C(C(=O)c3cc4ccccc4o3)C2c2cccc(Cl)c2)no1` (stereo not shown), the “hERG current change (%, negative = inhibition) at 10uM” value came out at 21.6%. The figure for `O=C(Nc1ccc(Cl)cc1C(=O)NCCN1CCOCC1)c1ccc(Cl)cc1Cl` is -21.2%; for `CC(=O)Oc1ccc(-c2cccc(C(=O)N3CCCCC3)c2)cc1` it is 5.03%; for `N#CCCn1cc(C(=O)Nc2ccccc2Br)c(-c2cc3ccccc3o2)n1` it is -7.47%.

For the compound `Cc1oc(-c2ccc(Cl)cc2)nc1CN1CCCC(C(=O)NC2CC2)C1` (stereo not shown), the “hERG current change (%, negative = inhibition) at 10uM” value was -81.3%. The figure for `CCCCn1c(N)c(N(CC)C(=O)c2ccccc2C)c(=O)[nH]c1=O` is 20.7%; for `CCCS(=O)(=O)N1CCC(C(=O)N2CCN(C(=O)OCC)CC2)CC1` it is -1.63%. The figure for `CC#CP(=O)(OC)C(O)(CF)c1ccccc1` (stereo not shown) is 12.9%. For `CCOC(=O)C1CCN(/C=C2/C(=O)NC(=O)N(Cc3ccco3)C2=O)CC1`, the “hERG current change (%, negative = inhibition) at 10uM” value was 14.8%. The same measure for `CC(C)(C)NS(=O)(=O)c1cnc(Cl)c(Cl)c1`: 2.6%; for `O=C(NCc1ccc(S(=O)(=O)NC2CCCCC2)s1)c1ccccc1`: -12%.

Consider `COc1ccc(C(NC(=O)N2CC(C)OC(C)C2)C(Cl)(Cl)Cl)cc1F` (stereo not shown), for which the “hERG current change (%, negative = inhibition) at 10uM” value was -10.4%. For the compound `COc1ccccc1Nc1nc(N)nc(CN2CCN(c3ccccc3F)CC2)n1`, the “hERG current change (%, negative = inhibition) at 10uM” value is reported as -35.9%. The figure for `COc1ccc(C2CC(C(F)(F)F)n3nc(C(=O)Nc4c(C)n(C)n(-c5ccccc5)c4=O)c(Cl)c3N2)cc1` (stereo not shown) is -17.3%. The same measure for `COc1ccc(C(CC(=O)Nc2ccc(C)cn2)N2Cc3ccccc3C2=O)cc1` (stereo not shown): -41.7%; for `CN=C1S/C(=C\c2ccc(SC)cc2)C(=O)N1C`: 15.6%.

Turning to `CCC(C)(C)NC(=O)C(c1ccccc1F)N(Cc1ccco1)C(=O)c1csnn1` (stereo not shown), the “hERG current change (%, negative = inhibition) at 10uM” value is reported as -26.2%. The figure for `CCOC(=O)c1c(C)c(C(=O)NC(C)COC)c(C)n1CC` (stereo not shown) is -6.3%; for `CCOc1ccc(CN2CCNC(=O)C2CC(=O)N(C)Cc2nonc2C)cc1` (stereo not shown) it is 14.7%.
